We go through 88 molecules from paper PMC4336329 (PLoS ONE, 2015).

The structures appear in SMILES notation. In all, about 310,000 compounds went through this assay and about 14,000 (4.5%) showed an effect of 50% or more. The effect is printed as a negative number. The list shows a part of the results.
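Note: peak tail current of the secondary pulse compared with the same well before compound.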

The assay deals with human ether-à-go-go-related gene (hERG) potassium channel (human, UniProt Q12809). As to the kind of experiment: primary screen, population patch clamp on CHO cells stably expressing hERG.
Chain of human ether-à-go-go-related gene (hERG) potassium channel (Q12809 whole entry, looked up): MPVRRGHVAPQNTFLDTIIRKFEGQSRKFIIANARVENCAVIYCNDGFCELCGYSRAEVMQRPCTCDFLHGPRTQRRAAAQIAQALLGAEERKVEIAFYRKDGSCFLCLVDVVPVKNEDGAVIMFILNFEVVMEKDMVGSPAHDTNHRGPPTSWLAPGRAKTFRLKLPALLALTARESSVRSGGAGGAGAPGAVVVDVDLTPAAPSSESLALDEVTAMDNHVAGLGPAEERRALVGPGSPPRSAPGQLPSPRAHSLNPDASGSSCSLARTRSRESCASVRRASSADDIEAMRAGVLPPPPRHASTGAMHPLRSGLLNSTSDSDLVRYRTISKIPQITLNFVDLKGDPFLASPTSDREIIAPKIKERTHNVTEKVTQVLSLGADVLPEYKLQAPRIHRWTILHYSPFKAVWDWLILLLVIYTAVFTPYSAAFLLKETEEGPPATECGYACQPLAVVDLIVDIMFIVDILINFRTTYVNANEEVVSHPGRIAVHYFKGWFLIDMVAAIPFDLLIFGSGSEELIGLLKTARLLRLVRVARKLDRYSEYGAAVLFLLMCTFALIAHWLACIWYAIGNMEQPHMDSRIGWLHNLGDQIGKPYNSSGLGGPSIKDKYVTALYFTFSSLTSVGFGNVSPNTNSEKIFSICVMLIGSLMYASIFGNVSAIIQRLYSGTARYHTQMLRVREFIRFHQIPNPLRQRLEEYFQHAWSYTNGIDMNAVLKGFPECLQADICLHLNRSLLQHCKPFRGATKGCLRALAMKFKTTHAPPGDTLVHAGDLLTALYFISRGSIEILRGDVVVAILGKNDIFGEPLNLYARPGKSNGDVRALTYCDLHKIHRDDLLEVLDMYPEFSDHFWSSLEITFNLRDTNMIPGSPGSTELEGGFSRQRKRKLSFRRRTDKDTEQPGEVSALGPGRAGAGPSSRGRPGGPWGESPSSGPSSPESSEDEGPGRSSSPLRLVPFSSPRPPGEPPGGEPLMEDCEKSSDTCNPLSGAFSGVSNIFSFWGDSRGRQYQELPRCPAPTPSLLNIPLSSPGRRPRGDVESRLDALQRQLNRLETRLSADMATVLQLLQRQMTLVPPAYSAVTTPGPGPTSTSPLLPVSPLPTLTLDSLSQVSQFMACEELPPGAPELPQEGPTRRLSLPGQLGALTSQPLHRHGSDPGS
As for `CCOCCCNC(=S)Nc1cc(OCC)c(NC(=O)c2ccco2)cc1OCC`, the “hERG current change (%, negative = inhibition) at 10uM” value is 12.3%. The value for `COCCn1c(N2CCN(c3ccc(OC)cc3)CC2)nc2c1c(=O)n(C)c(=O)n2C` was -0.941%; that for `CCC(=O)NC(NC(=O)CC)C(Cl)Cl` was 9.89%. In the case of `CC(c1cccs1)N(Cc1ccco1)C(=O)Nc1ccc(Cl)c(Cl)c1` (stereo not shown) it was -0.32%; in that of `CCCCOC(=O)Nc1nnc(C(C)C)s1`, 17.3%.

Take `O=C(Cn1cnc([N+](=O)[O-])c1)c1ccc(F)cc1`: the “hERG current change (%, negative = inhibition) at 10uM” value came to 6.88%. The value for `CCCC[n+]1ccn(C2=C([O-])c3ccccc3C(=O)/C2=N\S(=O)(=O)c2ccc(Cl)cc2)c1` was -17.8%; that for `CC1CCC(NC(=O)CCCn2sc3ccccc3c2=O)CC1` (stereo not shown) was 15.4%; that for `CC(NC(=O)c1cc2ccccc2oc1=O)c1ccccc1` (stereo not shown) was -8.03%. In the case of `CCCC1(c2ccccc2)NC(=O)N(CC(=O)NCC2COc3ccccc3O2)C1=O` (stereo not shown) it was -8.57%; in that of `Cc1nn(-c2ccccc2)c(C)c1/C=N/n1c(-c2ccc(C(C)(C)C)cc2)n[nH]c1=S`, 14.9%.

As to `COc1ccc(NC(=O)C2CCCN(C(=O)c3ccc(Cl)cc3)C2)cc1Cl` (stereo not shown), the “hERG current change (%, negative = inhibition) at 10uM” value is listed as -2.32%.

Consider `O=C(NS(=O)(=O)c1ccccc1[N+](=O)[O-])c1ccccc1`, for which the “hERG current change (%, negative = inhibition) at 10uM” value was determined as 9.38%. The value for `Cc1cc(C)c(NC(=O)C(C)OC(=O)c2cc(Br)c(Br)s2)c(C)c1` (stereo not shown) was 12.9%; that for `Cc1ccc(/C=N/Nc2nc3ccccc3[nH]2)s1` was -22.9%.

As for `COc1ccc(S(=O)(=O)NCc2ccncc2)cc1NC(=O)c1ccc(Cl)cc1`, the “hERG current change (%, negative = inhibition) at 10uM” value is -67.4%. In the case of `O=c1cc(CO)oc(C(Nc2cccc([N+](=O)[O-])c2)c2ccccn2)c1O` (stereo not shown) it was -18.4%. In the case of `Cc1ccc(N(CC(=O)NC2CCCCC2)C(=O)c2ccc(C)s2)cc1` it was -11.2%; in that of `Cc1cc(C)n(-c2ccccc2C#N)n1`, 5.3%. The value for `CCOC(=O)Cn1c(S(=O)(=O)Cc2ccccc2Cl)nc(-c2ccccc2)c1-c1ccccc1` was -6.2%; that for `CC(C)(C)Nc1nc2ccc([N+](=O)[O-])cc2o1` was -11.7%. Regarding `CCC(=O)Nc1cc2c3c(c1)CCC(=O)N3CCC2`, the “hERG current change (%, negative = inhibition) at 10uM” value turned out to be 1.44%. In the case of `O=C(NCc1ccco1)c1sc2cc(F)ccc2c1Cl` it was -6.31%.

`COc1ccccc1NC(=O)c1ccc(NC(=O)c2cc3c(s2)CCC3)cc1`: the “hERG current change (%, negative = inhibition) at 10uM” value turned out to be 18.1%. Consider `O=C(Cc1ccccc1)NNC1CC(=O)N(c2ccc(Br)cc2)C1=O` (stereo not shown), for which the “hERG current change (%, negative = inhibition) at 10uM” value was found to be 19.3%. In the case of `O=C(Cc1ccc(Cl)cc1)Nc1nc2ccccc2[nH]1` it was -3.81%. In the case of `O=C(COC(=O)c1cccnc1Cl)NCc1cccs1` it was 1.71%.

On to `CCCOc1ccc(N2C(=O)CC(N(CCc3ccc(OC)cc3)C(=O)c3cccc(F)c3)C2=O)cc1` (stereo not shown), for which the “hERG current change (%, negative = inhibition) at 10uM” value is recorded as -8.44%. In the case of `COc1ccc(CC(=O)Nc2ccc3c(c2)C(=O)N(CCC(=O)O)C3=O)cc1` it was 11.7%; in that of `O=C(NCc1ccccn1)c1ccc(OC2CCN(Cc3cccs3)CC2)cc1`, -11.9%; in that of `COc1ccc2ccccc2c1/C=N/NC(=O)c1sc(N)c(C#N)c1C`, -15.7%. In the case of `O=C(O)CCCn1cc(NC(=O)COc2cccc(Cl)c2)cn1` it was 14.5%; in that of `Cc1cc(C(=O)O)ccc1[N+](=O)[O-]`, 15.6%. In the case of `CCOc1ccc(N=C(C)c2ccccc2O)cc1` it was 14.3%; in that of `Cn1c(Cn2c(=O)sc3ccccc32)nnc1SCC(=O)Nc1ccccc1`, -2.13%.

As for `Cc1ccc(OCCSc2nnc(-c3ccncc3)n2C)cc1`, the “hERG current change (%, negative = inhibition) at 10uM” value is -28.9%. The value for `COc1ccc(OC)c(C(=O)c2ccc(C(=O)N3CCCCC3)cc2)c1` was -5.97%; that for `COc1cccc(CNC(=S)Nc2ccc(Cl)cc2C)c1` was -1.41%. The value for `COc1ccc(CN(C)C(=S)Nc2ccc(OC(F)F)cc2)cc1` was -58.9%; that for `CN(C)c1ccc(NC(=O)COC(=O)CCC(=O)c2ccc(F)cc2)cc1` was -18.4%; that for `Cc1ccc(C(=O)NC(=S)Nc2ccc(NC(=O)c3cccs3)cc2)cc1[N+](=O)[O-]` was 5.05%. With `CC(C)CN(CC(C)C)C(=O)COn1nnc2ccc(S(=O)(=O)N3CCOCC3)cc21`, the “hERG current change (%, negative = inhibition) at 10uM” value is on record as -34.8%. The value for `CCOc1cc(/C=N/NC(=O)c2cc(-c3cccc(OC)c3)nc3ccccc23)ccc1O` was 5.53%. The value for `Cc1ccc(NC2Sc3ccccc3NC2=O)cc1Cl` (stereo not shown) was 5.18%; that for `COc1cc(/C=C2\C(=N)N3N=C(C(C)C)SC3=NC2=O)ccc1OCCOc1ccc(NC(C)=O)cc1` was 7.55%. The value for `CCOc1ccc(NC(=O)NC2CCCCCCC2)cc1` was 10.9%. For `CN(C)c1ccc(C(=O)OCC(=O)Nc2ccc(N3CCOCC3)cc2)cc1`, the “hERG current change (%, negative = inhibition) at 10uM” value is listed as 5.99%. The value for `COc1ccc(-n2c(SCC(=O)N3CCOCC3)nc3ccccc3c2=O)cc1` was 15.2%; that for `Cc1nnc(SCC(=O)Nc2nccs2)n(N)c1=O` was 19.4%; that for `CCCc1nc(SCC(=O)N2CCc3ccccc32)c2c(C)c(C)sc2n1` was 17.4%. In the case of `CCC(C)(C)NC(=O)C(C(C)C)N(CC1CCCO1)C(=O)CNS(=O)(=O)c1ccc(F)cc1` (stereo not shown) it was -5.41%. In the case of `COc1cc(CN2CCC(Cc3ccccc3)CC2)c([N+](=O)[O-])cc1OC` it was 0.589%.

For `CN(Cc1cc2ccccc2[nH]c1=O)C(=O)C1CCCCC1`, the “hERG current change (%, negative = inhibition) at 10uM” value is listed as -71.6%. In the case of `COC(=O)C1=C(c2c(C)noc2C)C[C@@H]2CC[C@H]1N2C(=O)NCCO` it was 20%; in that of `C=CCn1c(SCC(=O)N2CCc3ccccc3C2)nc2sc(CC)cc2c1=O`, -34.5%. For the molecule `CCC(C)NC(=O)CN(C1CCCCC1)S(=O)(=O)c1ccc(F)cc1` (stereo not shown), the “hERG current change (%, negative = inhibition) at 10uM” value is listed as 8.05%.

As to `C=CCn1c(SCC(=O)N2CCCC2=O)nc2sc(CC)cc2c1=O`, the “hERG current change (%, negative = inhibition) at 10uM” value is recorded as -70.9%. For the molecule `O=C(Oc1ccccc1Cl)c1ccc2c(=O)n3c(nc2c1)CCC3`, the “hERG current change (%, negative = inhibition) at 10uM” value is 3.84%. The value for `Cc1c(O)c(S(=O)(=O)c2ccccc2)c(=O)n(-c2ccccc2)c1-c1ccccc1` was 3.84%. In the case of `CC1(c2ccc(OC(F)F)cc2)NC(=O)N(/N=C/c2c(O)ccc3ccccc23)C1=O` (stereo not shown) it was 2.07%. In the case of `COc1cc(C)c(C)cc1S(=O)(=O)N1CCN(Cc2ccccc2)CC1` it was -17.9%. In the case of `COCCOC(=O)C1=C(C)N=C2SCCC(=O)N2C1c1cccs1` (stereo not shown), the “hERG current change (%, negative = inhibition) at 10uM” value worked out at 13.8%. On to `CCCCc1cc(=O)oc2cc(OCC(=O)N3CCC(C(N)=O)CC3)ccc12`, for which the “hERG current change (%, negative = inhibition) at 10uM” value was -4.46%. On to `O=C(NCCNC(=O)c1cccs1)c1ccco1`, for which the “hERG current change (%, negative = inhibition) at 10uM” value was 16.8%.

Regarding `CCOc1ccc(S(=O)(=O)N2CCN(C(=O)CCOc3ccccc3C)CC2)cc1`, the “hERG current change (%, negative = inhibition) at 10uM” value is reported as -25.6%. In the case of `COc1ccc(C2OC3=C(Nc4cc(C)c(C)cc4N3)C2=O)cc1` (stereo not shown) it was 25.4%; in that of `COc1ccc(-n2nnnc2SCC(=O)Nc2ccc3c(c2)OCCO3)cc1OC`, 1.87%.

In the case of `Nc1cc(C(=O)Nc2ccc(Cl)cc2)ccc1N1CC2CC(C1)c1cccc(=O)n1C2` (stereo not shown), the “hERG current change (%, negative = inhibition) at 10uM” value was -62.1%.

`CC1(C)Cc2c(sc3nnn(CC(=O)Nc4ccccc4)c(=O)c23)CO1`: the “hERG current change (%, negative = inhibition) at 10uM” value is on record as -11.6%. The value for `O=C(NCC1CCCCC1)c1ccco1` was 7.39%; that for `COc1ccc(CCNC(=O)c2ccc(NS(=O)(=O)c3ccc4[nH]c(=O)[nH]c4c3)cc2)cc1` was 13.2%; that for `Cc1nc(-c2ccccc2)sc1-c1nc(-c2ccncc2)ncc1S(=O)(=O)c1ccccc1` was -6.61%. The value for `Cn1c(=O)c2c(SCC(=O)N3CCOCC3)nc(-c3ccccc3Cl)nc2n(C)c1=O` was -4.14%.

On to `CCCNC(=O)C1CC2Cn3c(nc4ccccc43)C2N1C` (stereo not shown), for which the “hERG current change (%, negative = inhibition) at 10uM” value was determined as 12.8%. In the case of `O=C(Nc1nc2c(Cl)cccc2s1)c1ccc(Br)o1` it was -7.37%; in that of `O=C(CCC(=O)Nc1ccccc1Cl)NNC(=O)c1ccccc1[N+](=O)[O-]`, 21.5%; in that of `Cc1ccc2nc(SCC(=O)NCc3ccco3)c(C)cc2c1`, 7.89%. In the case of `O=C(N/N=C/c1cccc(Cl)c1)C1CCCC1` it was 14.6%. In the case of `Cc1ccc2nc(/C(C#N)=C/c3ccc(-c4cccc([N+](=O)[O-])c4)o3)[nH]c2c1` it was -3.95%; in that of `Cn1c2ccccc2c2nnc(SC3CCOC3=O)nc21` (stereo not shown), -11.1%. With `COc1ccc(NC(=O)c2c3c(nc4ccccc24)CCC3)cc1`, the “hERG current change (%, negative = inhibition) at 10uM” value turned out to be 10.1%. In the case of `O=C(NN1CCOCC1)c1cccc(Cl)c1` it was 2.42%; in that of `COc1ccc(-c2csc(NC(=O)CSc3nc(C)cs3)n2)cc1`, 8.6%. Turning to `CSc1nnc(NC(=O)c2ccco2)s1`, the “hERG current change (%, negative = inhibition) at 10uM” value is on record as 15.8%.

In the case of `CCc1nnc(NC(=O)CSc2nc3ccccc3c(=O)n2CCCOC)s1`, the “hERG current change (%, negative = inhibition) at 10uM” value is recorded as -0.908%.

In the case of `COC(=O)c1c(-c2cccs2)csc1NC(=O)c1cccnc1`, the “hERG current change (%, negative = inhibition) at 10uM” value was -1.09%. The value for `Cc1nc2c(C)[n+](CC(=O)c3ccccc3)ccc2n1C.[Br-]` was 11.7%; that for `COc1ccc(Cl)cc1-c1nc(SCC(=O)N(C)C)n[nH]1` was 10.5%.
